The whole screen tested about 48,000 compounds, of which about 1,200 (2.5%) were called active. Inconclusive results (about 2%) are left out.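 How the source made its calls: active means activation of at least 60% and not above a set upper limit (about 1 call in 100 departs from these limits); inconclusive means activation of 40% to 60%, or above that upper limit; inactive means activation under 40%.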 Some of the results follow.
These compounds were tested against Probable G-protein coupled receptor 32 (Homo sapiens) (UniProt O75388) (assay: qHTS for Agonists of Human Resolvin D1 Receptor DRV1). Settings: CHO-K1 GPR32 beta-arrestin PathHunter luminescence, 90 min; at 76.9 µM; active compounds read high; zero percent set by DMSO-only wells.
Outline: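 Step 1: seed CHO-K1 GPR32 beta-arrestin cells, 2,500/well, overnight at 37 °C. Step 2: add compounds, 90 min at 37 °C. Step 3: detection reagent, 1 h ambient, then luminescence.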
Further: 0% is about no effect.

Sequence of UniProt O75388 (O75388 whole entry, looked up): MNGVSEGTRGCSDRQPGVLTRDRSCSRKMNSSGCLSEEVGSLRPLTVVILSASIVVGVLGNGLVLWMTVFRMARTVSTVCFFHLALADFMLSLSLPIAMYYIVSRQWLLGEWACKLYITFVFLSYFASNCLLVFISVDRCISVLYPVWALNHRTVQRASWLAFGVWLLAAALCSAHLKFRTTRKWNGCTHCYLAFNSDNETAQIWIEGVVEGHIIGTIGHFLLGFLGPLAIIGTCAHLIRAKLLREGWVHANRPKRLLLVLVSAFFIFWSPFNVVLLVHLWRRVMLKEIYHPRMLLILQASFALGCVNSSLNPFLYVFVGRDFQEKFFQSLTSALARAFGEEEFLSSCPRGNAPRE

Row | SMILES | activation
1 | COc1ccc(C)cc1Nc1nc(-c2cccc(Cl)c2)c2c(n1)-c1ccccc1OC2 | inactive: 4.89%
2 | COc1cc(-c2nc(Cn3nnc(C(=O)Nc4cc(C)cc(C)c4)c3C)c(C)o2)cc(OC)c1OC | inactive: -5.62%
3 | CCCCC(CC)CNC(=O)CCCn1c(=O)[nH]c2ccsc2c1=O (stereo not drawn) | inactive: 26.7%
4 | CCOC(=O)c1cc(-c2ccccc2)n(CC(=O)N(C)c2ccc(OC)cc2)c1C | inactive: -27.8%
5 | CCOc1ccc(NC(=O)C(NC(=O)C2CCC(C)CC2)C(C)C)cc1 (stereo not drawn) | inactive: -6.59%
6 | Cc1ccc(Nc2nc(C)cc(C)n2)c(C(=O)O)c1 | inactive: 10.1%
7 | COc1ccc(NC(=O)c2sc3nc(C)c(C(=O)Nc4ccc(C)cc4C)c(-c4ccc(C)o4)c3c2N)cc1 | inactive: -12.6%
8 | CCc1ccc(NC(=O)CN2C(=O)C3(SCC(=O)N3c3ccccc3)c3ccccc32)cc1 (stereo not drawn) | inactive: -7.83%
9 | CC1(C)CC(=O)c2cc(-c3nc(-c4ccc(Cl)cc4)cs3)c(=O)n(-c3ccc(Cl)cc3)c2C1 | inactive: 25.3%
10 | Cc1ccc(Cl)cc1NC(=O)CSC1=Nc2ccccc2C2=NC(Cc3ccccc3)C(=O)N12 (stereo not drawn) | inactive: -19%
11 | COc1ccc(NC(=O)Cn2nc(-c3ccncc3)ccc2=O)cc1Cl | inactive: -2.3%
12 | CC(C)CCNC(=O)c1ccc2c(c1)NC(=O)C(CS(=O)(=O)Cc1cccc(Br)c1)N2 (stereo not drawn) | inactive: -23.7%
13 | Cc1ccc(NC(=O)/C(C#N)=C/c2ccc(C)o2)cc1 | inactive: 9.71%
14 | C#CC(C)(CC)NC(=O)c1cnn2c(C(F)F)cc(-c3ccccc3OC)nc12 (stereo not drawn) | inactive: 7.36%
15 | Cc1cc(C)n(CCc2nc3c4ccccc4nc(N4CCN(c5ccccc5F)CC4)n3n2)n1 | inactive: 14.9%
16 | COc1ccc(CCNc2ncnc3c2cnn3-c2cccc(Cl)c2)cc1 | active: 114%
17 | COc1ccc(OCCCCn2c(C3CC(=O)N(c4cccc(Cl)c4)C3)nc3ccccc32)cc1 (stereo not drawn) | inactive: 1.25%
18 | COc1ccc(NC(=O)CSc2nc3ccccc3n2CC(=O)N(C)c2ccc(F)cc2)cc1 | inactive: -4.61%
19 | Cc1ccc(Cn2ccnc2SCC(=O)NCc2ccc(F)cc2)cc1 | inactive: -5.65%
20 | CCCN1CCN(CCNC(=O)Nc2ccc(OC)c(OC)c2)CC1 | inactive: -13%
21 | CC(=O)Oc1cccc(O)c1 | inactive: -23.3%
22 | CCOC(=O)C1CCN(CC(=O)N2CCCc3c2c(=O)oc2ccc(OCc4ccccc4)cc32)CC1 | inactive: -10.7%
23 | COc1ccc(-c2onc(C)c2C)cc1S(=O)(=O)N(C)Cc1ccco1 | inactive: -9.87%
24 | CN1C(=O)C2(SCC(=O)N2c2cccc(C(F)(F)F)c2)c2ccccc21 (stereo not drawn) | inactive: 6.5%
25 | CCOC(=O)C1CCC(CN(Cc2ccc(Cl)cc2)S(=O)(=O)c2ccc(Br)cc2)CC1 (stereo not drawn) | inactive: -1.49%
26 | CCOc1ccc(NC(=O)c2cn(C)c(=O)c3cc(OC)c(OC)cc23)cc1 | inactive: 12.3%
27 | COc1ccc(OC)c(NC(=O)Cn2c(=O)n(Cc3ccccc3)c(=O)c3ccccc32)c1 | inactive: -5.41%

Row | SMILES | activation
28 | CCn1cc(C(=O)N2CCN(c3cccc(Cl)c3)CC2)c(=O)c2cc(S(=O)(=O)N3CCCCC3)ccc21 | inactive: -7.63%
29 | COc1cc(OC)cc(C(=O)Nc2ccc3nc(N4CCCCC4)cc(C)c3c2)c1 | inactive: -25.8%
30 | COc1ccc(C(CNC(=O)c2oc3ccc(C)cc3c2C)N2CCOCC2)cc1 (stereo not drawn) | inactive: -9.04%
31 | COc1ccc(OC)c(NC(=O)N2CCN(S(=O)(=O)c3ccc4c(ccn4C)c3)CC2)c1 | inactive: -3.81%
32 | CC(C)Cn1c(=O)c2ccccc2n2c(CCC(=O)N3CCN(c4ccccc4F)CC3)nnc12 | inactive: -33.3%
33 | CCCn1c(-c2ccc(S(=O)(=O)N3CCOCC3)cc2)csc1=Nc1ccc(OCC)cc1 | inactive: 13.9%
34 | O=C(NCc1ccccc1Cl)C(=O)NCC(c1cccs1)S(=O)(=O)c1cccs1 (stereo not drawn) | inactive: -12.4%
35 | CCCSCCCNC(=O)C1CCN(c2nn3cc(-c4ccc(F)cc4)nc3s2)CC1 | inactive: 2.42%
36 | Cc1ccc2nc(-c3ccc(O)cc3)c(Nc3ccc4c(c3)OCCO4)n2c1 | inactive: -16.7%
37 | COC(=O)c1ccccc1NC(=O)Cn1c(=O)n(Cc2ccc(C(=O)NCc3ccc4c(c3)OCO4)cc2)c(=O)c2ccccc21 | inactive: -8.72%
38 | Cc1ccc(C)n1-c1nnc(N2CCCC(C(=O)Nc3ccc(C(C)C)cc3)C2)s1 (stereo not drawn) | inactive: -0.499%
39 | COc1cccc(C(=O)c2sc3nc(-c4ccccc4)cc(C(F)(F)F)c3c2N)c1 | inactive: -17%
40 | Cc1ccc(C)c(N2C(=O)N(Cc3cc(=O)n4ccccc4n3)c3ccccc3S2(=O)=O)c1 | inactive: -7.77%
41 | CCOC(=O)c1c(C)oc2ncnc(Nc3ccc(OCC)cc3)c12 | inactive: -0.746%
42 | Cc1ccc(CNC(=O)c2ccc3c(c2)nc(C)n3-c2cc(C)cc(C)c2)cc1 | inactive: -5.6%
43 | O=C(COc1ccccc1F)Nc1ccc(-c2nc3ccccc3s2)cc1 | inactive: -13.7%
44 | O=C(CN1C(=O)CCc2cc(S(=O)(=O)N3CCOCC3)ccc21)NCc1ccc(F)cc1 | inactive: 27.7%
45 | CCc1cccc(NC(=O)Nc2csc3c2CCCC3)c1 | inactive: 24.5%
46 | COc1cc(C)ccc1OCCSc1nc2ccc(NC(=O)c3ccc(F)cc3)cc2s1 | inactive: -3.18%
47 | CCCCOc1ccc(C(=O)Nc2ccc(-c3nc4ccccc4s3)cc2C)cc1 | inactive: -30.7%
48 | Cn1ccc2cc(S(=O)(=O)N3CCC(C(=O)NCCc4ccccc4)CC3)ccc21 | inactive: 10%
49 | N#Cc1ccccc1NC(=O)Cn1cnc2onc(-c3cccc(F)c3)c2c1=O | inactive: 1.04%
50 | Cc1ccc(N(CC(=O)NCCc2ccccc2)S(=O)(=O)N(C)C)cc1 | inactive: -13.5%
51 | COc1cccc(NC(=O)CNC(=O)Cn2c(C)cc3ccccc3c2=O)c1 | inactive: -4.18%
52 | CCOc1cc(CNc2ccc(O)cc2)ccc1OCc1ccc(Cl)cc1 | inactive: 8.1%
53 | CN(C)S(=O)(=O)c1ccc(C(=O)N2CC(=O)Nc3ccc(Br)cc3C2c2ccc(F)cc2)cc1 (stereo not drawn) | inactive: -25.6%

— PubChem BioAssay AID1346428 (National Center for Advancing Translational Sciences (NCATS), 2018)
